Positions count from the first letter of the chain named. Some of the results follow.

Here are results for 31 molecules from PMC9911399, “Two distinct binding modes provide the RNA-binding protein RbFox with extraordinary sequence specificity”.

First the molecules themselves.
T1: RBFOX1 RRM (Homo sapiens, UniProt Q9NWB1 109-208)
T1 sequence: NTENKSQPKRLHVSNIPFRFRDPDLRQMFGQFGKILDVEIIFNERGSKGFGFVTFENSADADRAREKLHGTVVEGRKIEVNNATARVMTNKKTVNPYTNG

B1: AUGAGGA (DNA:RNA)
RNA: GGGAGACCGGAAUUCAGAUUGUCCAUGAGGAUUAAAUCCCGUCGUAGCCACCA
DNA 1: CAATCTGAATTCCGGTCTCCC
DNA 2: TGGTGGCTACGACGGGATT
B2: AAGAGUA (DNA:RNA)
RNA: B1 RNA with U26A, G30U
DNA 1: CAATCTGAATTCCGGTCTCCC
DNA 2: TGGTGGCTACGACGGGATT
B3: CGCGUCU (DNA:RNA)
RNA: GGGAGACCGGAAUUCAGAUUGUCCCGCGUCUUUAAAUCCCGUCGUAGCCACCA
DNA 1: CAATCTGAATTCCGGTCTCCC
DNA 2: TGGTGGCTACGACGGGATT
B4: AACCGCU (DNA:RNA)
RNA: B3 RNA with C25A, G26A, G28C, U29G
DNA 1: CAATCTGAATTCCGGTCTCCC
DNA 2: TGGTGGCTACGACGGGATT
B5: CCACAAG (DNA:RNA)
RNA: B3 RNA with G26C, C27A, G28C, U29A, C30A, U31G
DNA 1: CAATCTGAATTCCGGTCTCCC
DNA 2: TGGTGGCTACGACGGGATT
B6: AACGCAG (DNA:RNA)
RNA: B3 RNA with C25A, G26A, U29C, C30A, U31G
DNA 1: CAATCTGAATTCCGGTCTCCC
DNA 2: TGGTGGCTACGACGGGATT
B7: CACCGCG (DNA:RNA)
RNA: B3 RNA with G26A, G28C, U29G, U31G
DNA 1: CAATCTGAATTCCGGTCTCCC
DNA 2: TGGTGGCTACGACGGGATT
B8: UGGUCUG (DNA:RNA)
RNA: B1 RNA with A25U, U26G, A28U, G29C, G30U, A31G
DNA 1: CAATCTGAATTCCGGTCTCCC
DNA 2: TGGTGGCTACGACGGGATT
B9: AAGUUAC (DNA:RNA)
RNA: B1 RNA with U26A, A28U, G29U, G30A, A31C
DNA 1: CAATCTGAATTCCGGTCTCCC
DNA 2: TGGTGGCTACGACGGGATT
B10: ACGCCAG (DNA:RNA)
RNA: B1 RNA with U26C, A28C, G29C, G30A, A31G
DNA 1: CAATCTGAATTCCGGTCTCCC
DNA 2: TGGTGGCTACGACGGGATT
B11: AUCCGCU (DNA:RNA)
RNA: B1 RNA with G27C, A28C, G30C, A31U
DNA 1: CAATCTGAATTCCGGTCTCCC
DNA 2: TGGTGGCTACGACGGGATT
B12: CCGUAAA (DNA:RNA)
RNA: B1 RNA with A25C, U26C, A28U, G29A, G30A
DNA 1: CAATCTGAATTCCGGTCTCCC
DNA 2: TGGTGGCTACGACGGGATT
B13: UUGUGUA (DNA:RNA)
RNA: B1 RNA with A25U, A28U, G30U
DNA 1: CAATCTGAATTCCGGTCTCCC
DNA 2: TGGTGGCTACGACGGGATT
B14: UUACGAA (DNA:RNA)
RNA: B1 RNA with A25U, G27A, A28C, G30A
DNA 1: CAATCTGAATTCCGGTCTCCC
DNA 2: TGGTGGCTACGACGGGATT
B15: CUCACUA (DNA:RNA)
RNA: B1 RNA with A25C, G27C, G29C, G30U
DNA 1: CAATCTGAATTCCGGTCTCCC
DNA 2: TGGTGGCTACGACGGGATT
B16: UAAAAUA (DNA:RNA)
RNA: B1 RNA with A25U, U26A, G27A, G29A, G30U
DNA 1: CAATCTGAATTCCGGTCTCCC
DNA 2: TGGTGGCTACGACGGGATT
B17: AGACACG (DNA:RNA)
RNA: B3 RNA with C25A, C27A, G28C, U29A, U31G
DNA 1: CAATCTGAATTCCGGTCTCCC
DNA 2: TGGTGGCTACGACGGGATT
B18: ACUCCUA (DNA:RNA)
RNA: B1 RNA with U26C, G27U, A28C, G29C, G30U
DNA 1: CAATCTGAATTCCGGTCTCCC
DNA 2: TGGTGGCTACGACGGGATT
B19: GAAUCCG (DNA:RNA)
RNA: B3 RNA with C25G, G26A, C27A, G28U, U29C, U31G
DNA 1: CAATCTGAATTCCGGTCTCCC
DNA 2: TGGTGGCTACGACGGGATT
B20: GACAGCU (DNA:RNA)
RNA: B3 RNA with C25G, G26A, G28A, U29G
DNA 1: CAATCTGAATTCCGGTCTCCC
DNA 2: TGGTGGCTACGACGGGATT
B21: GCGUUUC (DNA:RNA)
RNA: B1 RNA with A25G, U26C, A28U, G29U, G30U, A31C
DNA 1: CAATCTGAATTCCGGTCTCCC
DNA 2: TGGTGGCTACGACGGGATT
B22: CAGCUGC (DNA:RNA)
RNA: B1 RNA with A25C, U26A, A28C, G29U, A31C
DNA 1: CAATCTGAATTCCGGTCTCCC
DNA 2: TGGTGGCTACGACGGGATT
B23: GCAAGUA (DNA:RNA)
RNA: B1 RNA with A25G, U26C, G27A, G30U
DNA 1: CAATCTGAATTCCGGTCTCCC
DNA 2: TGGTGGCTACGACGGGATT
B24: AAUACAG (DNA:RNA)
RNA: B1 RNA with U26A, G27U, G29C, G30A, A31G
DNA 1: CAATCTGAATTCCGGTCTCCC
DNA 2: TGGTGGCTACGACGGGATT
B25: CUUGUGG (DNA:RNA)
RNA: B3 RNA with G26U, C27U, C30G, U31G
DNA 1: CAATCTGAATTCCGGTCTCCC
DNA 2: TGGTGGCTACGACGGGATT
B26: ACAGUGU (DNA:RNA)
RNA: B3 RNA with C25A, G26C, C27A, C30G
DNA 1: CAATCTGAATTCCGGTCTCCC
DNA 2: TGGTGGCTACGACGGGATT
B27: GGCAAUA (DNA:RNA)
RNA: B1 RNA with A25G, U26G, G27C, G29A, G30U
DNA 1: CAATCTGAATTCCGGTCTCCC
DNA 2: TGGTGGCTACGACGGGATT
B28: GAACGGG (DNA:RNA)
RNA: B1 RNA with A25G, U26A, G27A, A28C, A31G
DNA 1: CAATCTGAATTCCGGTCTCCC
DNA 2: TGGTGGCTACGACGGGATT
B29: GCUGAGC (DNA:RNA)
RNA: B1 RNA with A25G, U26C, G27U, A28G, G29A, A31C
DNA 1: CAATCTGAATTCCGGTCTCCC
DNA 2: TGGTGGCTACGACGGGATT
B30: UAAUUGC (DNA:RNA)
RNA: B1 RNA with A25U, U26A, G27A, A28U, G29U, A31C
DNA 1: CAATCTGAATTCCGGTCTCCC
DNA 2: TGGTGGCTACGACGGGATT
B31: AGAGCCA (DNA:RNA)
RNA: B3 RNA with C25A, C27A, U29C, U31A
DNA 1: CAATCTGAATTCCGGTCTCCC
DNA 2: TGGTGGCTACGACGGGATT

This test has as its target T1, RBFOX1 RRM. As to the kind of experiment: EMSA; HiTS-Eq, 1 nM pool, 10 min; buffer printed only for the single-RNA assays: 10 mM Tris pH 7.5, 150 mM NaCl, 3.4 mM EDTA, 0.001% NP-40, 30 C. As to conditions: tags: His6 N-terminal (pET28a); label: 5' 32P. The method in brief:
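Relative association constants, normalised to the cognate motif, were derived by comparing read counts of each RNA species with those of the control reaction. The RNA sequenced was the free fraction, separated by 8% native PAGE after a 10 min equilibration in 50 µL of 1 nM 5′-radiolabelled RNA (7 randomized nucleotides) with increasing concentrations of purified wild-type or mutant RbFox RRM.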
Turning to B1, the binding signal is 0.00447 KA relative to UGCAUGU.

For B2, the binding signal is 0.00259 KA relative to UGCAUGU.

For the molecule B3, the binding signal was 0.0103 KA relative to UGCAUGU. Turning to B4, the binding signal is 0.00231 KA relative to UGCAUGU. On to B5, for which the binding signal was 0.00421 KA relative to UGCAUGU. Take B6: the binding signal is 0.00646 KA relative to UGCAUGU.

Take B7: the binding signal is 0.00124 KA relative to UGCAUGU. Turning to B8, the binding signal is 0.0221 KA relative to UGCAUGU. Take B9: the binding signal was 0.00621 KA relative to UGCAUGU. With B10, the binding signal is 0.00699 KA relative to UGCAUGU. With B11, the binding signal is 0.00392 KA relative to UGCAUGU.

For B12, the binding signal is 0.00489 KA relative to UGCAUGU. With B13, the binding signal is 0.0164 KA relative to UGCAUGU. Next, B14: 0.00945 KA relative to UGCAUGU; B15: 0.00245 KA relative to UGCAUGU.

B16: the binding signal was 0.0019 KA relative to UGCAUGU. As for B17, the binding signal is 0.00775 KA relative to UGCAUGU. In the case of B18, the binding signal is 0.00437 KA relative to UGCAUGU. Regarding B19, the binding signal was 0.00852 KA relative to UGCAUGU. With B20, the binding signal was 0.00951 KA relative to UGCAUGU. As for B21, the binding signal is 0.0163 KA relative to UGCAUGU. As to B22, the binding signal is 0.0106 KA relative to UGCAUGU. For the molecule B23, the binding signal is 0.00909 KA relative to UGCAUGU. Then B24, with 0.000864 KA relative to UGCAUGU; and B25, with 0.00448 KA relative to UGCAUGU. With B26, the binding signal was 0.00655 KA relative to UGCAUGU. On to B27, for which the binding signal is 0.00549 KA relative to UGCAUGU. Then B28, with 0.00804 KA relative to UGCAUGU; and B29, with 0.0214 KA relative to UGCAUGU. Then B30, with 0.0119 KA relative to UGCAUGU; and B31, with 0.00273 KA relative to UGCAUGU.
